Reference: PubChem BioAssay AID624296 (National Center for Advancing Translational Sciences (NCATS), 2012)
In all, about 350,000 compounds went through this assay and about 9,900 (2.8%) were called active. Inconclusive results, whose numbers are uncertain, are shown with a selection of clear calls. The call rests on the fitted dose curve; in most records, active means well fitted activation curve with a large enough effect; inconclusive means small, poorly fitted or top-dose-only effect; inactive means no such curve, though single readings can be large or run the other way. No potency is given beside an inconclusive call; the fits are too rough.

Assay: A quantitative high throughput screen for small molecules that induce DNA re-replication in MCF 10a normal breast cells. Further: nearly all actives have a fitted effect of over 50% in size. On activity, positive = re-replication: % of control where 0% means no effect.
Settings: MCF 10A DNA re-replication, Hoechst nuclear intensity, 48 h; activity, positive = re-replication: at 46.1 µM (top of the series)
Potency means the concentration at half of the fitted maximal effect; tags describe the fitted curve by direction and shape.

Structure (SMILES)	Potency	activity, positive = re-replication
O=C(Cn1ccc(C(F)(F)F)n1)Nc1cccc(S(=O)(=O)N2CCCCC2)c1	inconclusive [activator, single point]	
CCOC(=O)C1=C(c2ccccc2)N=c2s/c(=C\c3cccc(O)c3)c(=O)n2C1c1cccs1 (configuration not stated)	inconclusive [activator, single point]	
O=C(Nc1nnc(SCc2c(Cl)cccc2Cl)s1)C1CCCO1 (configuration not stated)	active: 11.6 µM	
O=C(NCC(c1ccco1)N1CCc2ccccc2C1)c1ccc(Br)cc1 (configuration not stated)	inconclusive [activator, single point]	
COc1ccccc1N1CCN(CC(O)COc2ccc(C)c(C)c2)CC1 (configuration not stated)	inconclusive [activator, partial curve, poor fit]	
Cc1nc(SCCC(=O)O)c2cc(-c3ccccc3)sc2n1		inactive: 10.6%
O=C1c2cccc3c(N4CCCCC4)ccc(c23)C(=O)N1c1ccccc1O	active: 5.8 µM	
Cc1nn(-c2ccccc2)c(C)c1/C=N/Nc1nc2ccccc2[nH]1	inconclusive [activator, single point]	
Nc1cc(Cl)ccc1C(=O)OCC(=O)NC1CCCCCCC1	inconclusive [activator, single point]	
CCC(C)(C)NC(=O)C(c1ccccc1)N(Cc1cccs1)C(=O)Cn1nnc2ccccc21 (configuration not stated)	inconclusive [activator, partial curve, poor fit]	
O=C(NC(=S)Nc1c(Cl)ccc2nsnc12)c1ccccc1F		inactive: 6.17%
Cc1ccc2nc(-c3cccnc3)cc(C(=O)Nc3ccccc3[N+](=O)[O-])c2c1	active: 14.6 µM	
O=S(=O)(Nc1nc2ccccc2nc1NCc1ccco1)c1ccc(Cl)cc1	inconclusive [activator, single point]	
CCCN(CCC)S(=O)(=O)c1ccc(Cl)c([N+](=O)[O-])c1	inconclusive [activator, single point]	
Cc1ccccc1C(=O)Nc1cccc(NC(=S)NC(=O)c2cccs2)c1	inconclusive [activator, single point]	
CCCCC(NC(=O)Cc1c(C)c2cc3c(-c4ccccc4)coc3c(C)c2oc1=O)C(=O)O (configuration not stated)	active: 20.6 µM	
COC(=O)c1c(NC(=O)C(Cl)Cl)sc2c1C(C(=O)OC)CC2 (configuration not stated)	active: 8.2 µM	
O=C1CCN(CCc2ccccc2)CCN1[C@H](CSc1ccc(Br)cc1)c1ccccc1	inconclusive [activator, single point]	
CC(C)(C)c1cc(OS(C)(=O)=O)ccc1O		inactive: 20.8%
O=c1o[nH]c(-c2ccccc2)c1-c1ccccc1		inactive: 0.264%
Cc1cc(C(=O)N[C@H](c2ccccc2)[C@@]2(C)C[C@@H]2[C@@H](C)C(=O)Nc2ccc3ccccc3c2)n(C)n1	inconclusive [activator, partial curve, poor fit]	
Cc1c(OCC(=O)NCc2ccccn2)ccc2c(-c3ccccc3)cc(=O)oc12	inconclusive [activator, full curve, poor fit]	
CCC(C)N1C(=O)S/C(=C/c2ccc(N3CCOCC3)cc2C)C1=O (configuration not stated)	inconclusive [activator, single point]	

Structure (SMILES)	Potency	activity, positive = re-replication
COc1ccc(-c2cc(OC)c3ccccc3n2)cc1	inconclusive [activator, partial curve, poor fit]	
O=[N+]([O-])c1cccc(S(=O)(=O)Nc2ccc(Cc3ccncc3)cc2)c1		inactive: 16.8%
Cc1ccc(NC(=O)C2CCCN2C(=O)Oc2ccccc2)cc1C (configuration not stated)		inactive: 4.94%
Cc1ccc(C(=O)NC(=S)Nc2ccc(NC(=O)c3cccc(Cl)c3)cc2)cc1	inconclusive [activator, partial curve, poor fit]	
Cc1nc(-c2cccc(S(=O)(=O)N3CC(C)OC(C)C3)c2)cs1 (configuration not stated)		inactive: -1.99%
O=C(Oc1cccc2c(O)cccc12)c1ccccc1Cl	inconclusive [activator, single point]	
Cc1c(C)n(C(=O)CSc2nccn2C)c2ccccc12	inconclusive [activator, single point]	
COc1ccc(S(=O)(=O)n2ccc(-c3ccc(OCCN(C)c4ccccn4)cc3)n2)cc1	inconclusive [activator, full curve, poor fit]	
O=C(Nc1nccs1)C1C2/C=C\CCCCC21 (configuration not stated)	inconclusive [activator, partial curve, poor fit]	
Cc1cc(OCCN2CCOCC2)ccc1C(C)C		inactive: 7.76%
O=C(Nc1ccc2nc3n(c(=O)c2c1)CCCC3)c1ccc(Cl)nc1	inconclusive [activator, single point]	
O=C(CCS(=O)(=O)Cc1ccccc1)Nc1nncs1	inconclusive [activator, single point]	
COc1ccc(CC(=O)NC(C)c2ccc3ccccc3c2)cc1 (configuration not stated)	inconclusive [activator, single point]	
Cc1ccc(CN2CCSc3ccc(C(=O)NCCCN4CCOCC4)cc32)cc1	inconclusive [activator, partial curve, poor fit]	
Cc1ccc(CNC(=O)c2cncc(Br)c2)cc1		inactive: 2.57%
CCOc1ccc(C(CCc2ccccc2)NC(=O)c2ccccc2OC)cc1OCC (configuration not stated)	active: 20.6 µM	
COc1ccc(C2=NN(C(=O)c3ccccc3)C(c3ccc(OC)c(OC)c3)C2)c(O)c1 (configuration not stated)		inactive: 11.2%
Oc1[nH]c(N=C2N=c3ccccc3=N2)c2ccccc12	inconclusive [activator, single point]	
C=CCC[C@H](Cc1ccc(F)cc1)C(=O)OC[C@@H](NC(=O)[C@@H](CC=C)CC(=O)N[C@H](CO)Cc1ccccc1)C(C)(C)C	inconclusive [activator, single point]	
COc1ccc(CCNC(=O)CC(c2ccccc2)c2cc(C)ccc2O)cc1OC (configuration not stated)	inconclusive [activator, single point]	
COc1ccccc1/C=N/NC(=O)c1ccc(=O)n(C)c1		inactive: -2.24%
Cc1ccc(S(=O)(=O)N(C(=O)c2ccncc2)c2ccc(OC(=O)c3ccncc3)cc2)c(C)c1	inconclusive [activator, single point]	
Cc1cc2c(NC(=O)Nc3ccc(C(C)(C)C)cc3)cccc2nn1	inconclusive [activator, single point]	

Structure (SMILES)	Potency	activity, positive = re-replication
Cc1nnc(SCC(=O)N2CCN(S(=O)(=O)c3ccc(Cl)cc3)CC2)n(N)c1=O	inconclusive [activator, partial curve, poor fit]	
Nc1nc2n(n1)C(=O)CC(c1ccc(Cl)cc1)N2 (configuration not stated)	inconclusive [activator, single point]	
CC1Oc2ccccc2N(CC(=O)NCCCN2CCOCC2)C1=O (configuration not stated)		inactive: -6.28%
COc1ccccc1C(=O)N1CCN(c2nc3cc(C)c(C)cc3cc2C#N)CC1	inconclusive [activator, partial curve, poor fit]	
O=C(Nc1nc2ccccc2s1)NC1CCCCC1	inconclusive [activator, full curve, poor fit]	
Cc1ccc(-n2c(C)cc(/C=N/Nc3ccc([N+](=O)[O-])cn3)c2C)cc1	inconclusive [activator, partial curve, poor fit]	
O=C(Nc1ccc(S(=O)(=O)N2CCOCC2)cc1)c1cc(-c2cc(Cl)ccc2O)n[nH]1	inconclusive [activator, partial curve]	
COc1ccc(NC(=O)c2cc(-c3cc(OC)c(OC)c(OC)c3)nc3ccccc23)c(OC)c1	inconclusive [activator, single point]	
CC12CCC(C(=O)N(CSC(=S)N/N=C\c3ccccc3O)C1=O)C2(C)C (configuration not stated)	inconclusive [activator, partial curve, poor fit]	
CC(C)n1ncc2c(C(=O)NCC(=O)Nc3ccccc3Br)cc(C3CC3)nc21	inconclusive [activator, single point]	
CN(C)c1nc(N(C)C)nc(N2CC(CCl)OC2=N)n1 (configuration not stated)	inconclusive [activator, partial curve, poor fit]	
Cc1ccc(NC(=O)C(Cc2ccccc2)N2C(=O)C3C4CCC(C4)C3C2=O)cc1Cl (configuration not stated)	inconclusive [activator, single point]	
CCS(=O)CC(=O)Nc1c(-c2ccccc2)oc2ccccc2c1=O (configuration not stated)	inconclusive [activator, full curve, poor fit]	
COc1ccc(NC(=O)Nc2ccc(OC)cc2)cc1		inactive: -4.19%
O=C(Nc1nc(N2C(=O)c3ccccc3C2=O)n(-c2ccccc2)n1)c1ccc(F)cc1		inactive: -0.526%
COCc1cc(=O)[nH]c(/N=C(\N)Nc2ccc(Cl)c(Cl)c2)n1	inconclusive [activator, partial curve, poor fit]	
O=C1CCC(C(=O)OCc2cc(=O)oc3ccc4ccccc4c23)=NN1		inactive: -1.68%
O=C(NCCc1ccc(F)cc1)Nc1ccccc1	inconclusive [activator, single point]	
COc1ccc2c(C)c(Cl)c(=O)oc2c1		inactive: 0.027%
O=C(NCc1nc2ccccc2[nH]1)C1=C[C@@H](c2csc3ccccc23)C[C@@H](OCc2ccc(CO)cc2)O1	inconclusive [activator, single point]	
CCCC[C@@H]1C=C(C(=O)O)[C@H](c2ccc(Br)cc2)N1S(=O)(=O)c1ccc(C)cc1		inactive: 6.22%
